The results in this text go back to patent US11542275B2, “Substituted imidazolidin-2-one derivatives as PRMT5 inhibitors” (Aurigene Discovery Technologies Limited, priority 2018, dated 2023).

What is called IC50 is the concentration that gives 50% inhibition. Higher therefore signals weaker potency in that assay.

The target of the assay is PRMT5/MEP50 Complex (Homo sapiens (Human), UniProt O14744). Kind of assay: PRMT5 inhibition based on TR-FRET assay. The format is biochemical. Particulars: 32 nM PRMT5:MEP50 complex, 50 nM Histone-H4 peptide, 1 μM SAM, 90 minutes at room temperature. The source says:
Protein arginine methyltransferase 5 (PRMT5) is a type II arginine methyltransferase that catalyze mono- and symmetric demethylation on arginine residues of histone or non-histone proteins in presence of S-adenosylmethionine (AdoMet or SAM) a cofactor responsible for donating the methyl group. PRMT5 is reported to be overexpressed in several human cancers. To identify compounds that inhibit the PRMT5 and decrease its activity, a TR-FRET based assay has been established. Time-resolved fluorescence resonance energy transfer (TR-FRET) HTS assays are homogeneous proximity assays where the interaction of two dye-labeled binding partners is detected by the energy transfer between a donor and an acceptor dye, and the subsequent light emission by the acceptor dye. PRMT5 catalyzes Histone H4 peptide which is biotin tagged to the Lysine amino acid at carboxyl end, in presence of S-adenosyl-1-methionine (SAM) to methylate the peptide. The antibody specific to mono methylated H4 peptide (H4R3) with Ig conjugate binds to the methylated peptide, indirectly binding to the Europium lanthanide. […]
The compound dilutions were prepared as 7.5% DMSO stock solutions in assay buffer. […] The plates were then read on Victor-3 with Excitation at 340 nm and Emissions collected at 615 and 665 nm in TR-FRET protocol. […]
For orientation: In TR-FRET formats the signal depends on donor and acceptor labels being close together.

The compound `N#Cc1ncc(-c2cccc(CN3CCN(C[C@H](O)CN4CCc5ccccc5C4)C3=O)n2)cn1` [Compound 55, (R)-5-(6-((3-(3-(3,4-dihydroisoquinolin-2(1H)-yl)-2-hydroxypropyl)-2-oxoimidazolidin-1-yl)methyl)pyridin-2-yl)pyrimidine-2-carbonitrile] registered an IC50 of 32 nM. This counts as double-digit nanomolar. In the case of `O=C1N(Cc2ccc(-c3ccnc(O)c3)cn2)CCN1C[C@H](O)CN1CCc2ccccc2C1` [Compound 56, (R)-1-(3-(3,4-dihydroisoquinolin-2(1H)-yl)-2-hydroxypropyl)-3-((2′-hydroxy-[3,4′-bipyridin]-6-yl)methyl)imidazolidin-2-one] it was 18 nM.
